Test results: PubChem BioAssay AID485344 (National Center for Advancing Translational Sciences (NCATS), 2010)
The whole screen tested about 340,000 compounds, of which about 6,900 (2%) were called active. Cut-off read from the data, not from the text of the source: active = inhibition above about 30%; inactive = below that, where a call was filed. The entries are a selection whose mix differs from that of the whole data set. Where no call is shown, the source filed none.

biological target: D(2) dopamine receptor (Homo sapiens) (UniProt P14416); assay: HTS Assay for Allosteric Antagonists of the Human D2 Dopamine Receptor: Primary Screen for Antagonists; conditions: HEK293 TREx D2 cells, calcium flux, dopamine EC80; at 10 µM; stronger effect = higher value; note: 0% is about no effect
In short: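 Cells plated overnight at 30 C with tetracycline; no-wash calcium dye, 30–90 min RT; 10 s baseline; compound pinned; 180 s read; EC80 dopamine added; another 180 s read.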

Chain of UniProt P14416 (P14416 whole entry, looked up): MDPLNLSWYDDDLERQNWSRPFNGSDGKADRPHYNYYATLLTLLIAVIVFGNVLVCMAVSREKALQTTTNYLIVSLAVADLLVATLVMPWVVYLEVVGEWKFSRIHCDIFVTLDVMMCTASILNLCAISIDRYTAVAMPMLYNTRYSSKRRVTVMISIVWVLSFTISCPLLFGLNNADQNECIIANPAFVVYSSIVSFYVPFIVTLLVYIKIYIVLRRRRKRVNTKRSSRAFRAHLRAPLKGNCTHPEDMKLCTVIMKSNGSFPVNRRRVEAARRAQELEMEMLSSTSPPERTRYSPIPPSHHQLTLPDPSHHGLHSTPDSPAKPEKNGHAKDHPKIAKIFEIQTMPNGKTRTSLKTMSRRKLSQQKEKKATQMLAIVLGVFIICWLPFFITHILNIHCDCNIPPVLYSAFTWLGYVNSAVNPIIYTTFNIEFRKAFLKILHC

Structure (SMILES)	inhibition
Cc1ccc(C)c(NC(=O)c2cc(S(=O)(=O)NCCc3ccccc3)ccc2F)c1	-2.45%
C=CCNC(=S)NNC(=O)CC12CC3CC(CC(C3)C1)C2	active: 33.6%
CCOC(=O)C1CCCN(C(=O)c2ccc3c(c2)N(Cc2ccc(Cl)cc2)C(=O)c2ccccc2S3=O)C1 (configuration not stated)	-12.3%
Cc1noc(/C=C/c2ccccc2F)c1S(=O)(=O)N1CCC(C(=O)Nc2ccc(C#N)cc2)CC1	-1.53%
COc1cccc(NC(=O)Nc2ccc3nc(N4CCN(C)CC4)cc(C)c3c2)c1	7.96%
CC1(C(=O)NNC(=O)c2ccc([N+](=O)[O-])cc2)CC1(Br)Br (configuration not stated)	active: 37.1%
COC(=O)c1ccccc1NC(=O)CN1CCN(C23CC4CC(CC(C4)C2)C3)CC1	active: 72.2%
Cc1nc(N2CCOCC2)[nH]c(=O)c1C(O)C(Cl)(Cl)Cl (configuration not stated)	active: 48.1%
Cc1ccc2c(CNC3CCCC3)c(C(=O)O)n(Cc3ccc(F)cc3)c2c1	17.9%
CN(C(=O)CSc1nc2ccccc2n1CC(=O)N(C)C1CCCCC1)c1ccccc1	15%
CC1=Nc2cc(C(=O)NC3CCCCC3)ccc2Sc2ccc(Cl)cc21	-10.9%
COc1ccc(NC(=O)c2coc(=O)c3ccccc23)cc1OC	-12.1%
CC1=C(c2ccc(C(C)C)cc2)S(=O)(=O)N=C1N1CCN(c2ccc(F)cc2)CC1	27.2%
O=C(CCCc1ccccc1)NC1CC(=O)N(c2ccc(Cl)cc2)C1 (configuration not stated)	12%
O=C(CCN1CCN(c2ccccc2)CC1)Nc1ccc2c(c1)OCO2	active: 108%
COc1ccccc1C(=O)n1nc(-c2cccnc2)nc1NCc1ccccc1	1.57%
Cc1ccc(OCC(=O)Nc2nnc(SCc3cc(=O)c4ccccc4[nH]3)s2)cc1C	6.7%
Cc1ccc(Cl)cc1NC(=O)c1ccc(NC(=O)N2CCSc3ncccc32)cc1	9.59%
CCOc1ccc(NC(=O)CN2CCN(c3ccccc3C)CC2)cc1S(=O)(=O)N1CCCC1	active: 34.7%
Cc1cccc(-c2nc3c4ccccc4nc(N4CCN(c5ccc(F)cc5)CC4)n3n2)c1	3.81%
Cc1cccc(N2CCN(Cc3cn(C)nc3-c3ccccc3F)CC2)n1	active: 30.4%
O=C(NCc1ccccc1Cl)c1ccc2c(c1)nnn2C1CCCC1	-27.2%
O=C(NC1(C(F)(F)F)C(=O)Nc2c1c(=O)[nH]c(=O)n2CCc1ccccc1)c1ccc(Cl)cc1 (configuration not stated)	-19.7%
CCCCC(=O)Nc1ccc2nc(SCC(=O)N3CCOCC3)sc2c1	-16.1%
COc1cc(NS(=O)(=O)c2ccc3[nH]c(=O)[nH]c3c2)cc(OC)c1	-3.84%

Structure (SMILES)	inhibition
CCOc1ccc(NC(=O)CN2CCN(CC(=O)Nc3ccc(N(CC)CC)cc3)CC2)cc1	2%
COc1cccc2c1Oc1ncccc1N(c1ccc(C(=O)NCc3ccccc3C)s1)C2	-0.315%
Cc1ccc(NC(=O)c2c(C)oc3ncn(C)c(=O)c23)cc1F	21.5%
COc1ccccc1NC(=O)CSC1=Nc2ccccc2C2=NC(CC(=O)NCCc3ccccc3)C(=O)N12 (configuration not stated)	1.75%
CCOc1ccc(Nc2c(S(=O)(=O)c3ccc(C)cc3)cnc3cc(OC)c(OC)cc23)cc1	1.23%
CCc1ccccc1NC(=O)Cn1nnc(-c2nc(-c3ccncc3)no2)c1N	-6.41%
COc1cc(NS(=O)(=O)c2ccc3c(c2)CC(=O)N3)cc(OC)c1OC	-6.46%
Cc1ccc(NC(=O)C2CCN(S(=O)(=O)c3ccc4c(c3)CCCC(=O)N4)CC2)c(Cl)c1	6.09%
CCc1ccc(C2=C(C)C(N3CCC(C(=O)Nc4cccc(OC)c4)CC3)=NS2(=O)=O)cc1	7.75%
Oc1ccc(/C=C/c2nc(-c3ccccc3O)n(-c3ccccc3)n2)c(O)c1	-18%
CCOc1ccc(NC(=O)CSc2nc(-c3cccs3)cc(C(F)(F)F)c2C#N)cc1	3.06%
Cc1cccc(NC(=O)CSc2nc(=O)n(Cc3ccncc3)c3c2CCC3)c1C	-15.2%
Cc1ccc(-c2noc(-c3ccccc3NC(=O)C3CC(=O)N(c4cccc(C)c4)C3)n2)cc1 (configuration not stated)	28%
CCOC(=O)c1c(NC(=O)COc2cc(C)ccc2C(C)C)sc2c1CCCC2	-10.2%
Cc1cc(/C=N/O)c(C)n1-c1ccc(Br)cc1	active: 37.7%
Cc1cccc(NC(=O)c2c(NC(=O)c3cccs3)sc3c2CCC(C)C3)c1 (configuration not stated)	-4.94%
COc1cccc(CN2CCc3nc(Nc4ccc5c(c4)OCCO5)ncc3C2)c1OC	7.92%
CC(=O)Nc1ccc(OCc2cc(=O)n3ccccc3n2)cc1	-24.5%
COc1ccccc1N1CCN(C(CNC(=O)C(=O)NCCN(C)C)c2cccnc2)CC1 (configuration not stated)	-3.34%
S=C(NCc1ccco1)Nc1ccccc1	active: 30.6%
O=C(O)C1CC=CCC1C(=O)NCCCCc1ccccc1 (configuration not stated)	active: 33.7%
CN(C)C(=O)c1ccc(NC(=O)Cn2nc(-c3ccccc3)c3ccccc3c2=O)cc1	-6.27%
CCOC(=O)c1cccc(NS(=O)(=O)c2cc(-c3cnc(C)o3)ccc2OC)c1	-19.9%
Clc1cccc(-n2ncc3c(NCCc4ccccc4)ncnc32)c1	-8.25%
CCCOc1ccc(C2C(=O)N(C3CCCCC3)CC(=O)N2CCc2ccccc2)cc1OC (configuration not stated)	-11.8%

Structure (SMILES)	inhibition
Cc1c(Cl)cccc1NC(=O)c1ccc2c(c1)nnn2C1CCCC1	-14.5%
CCOC(=O)c1c(C)oc2nc(C)nc(N(CC(C)C)CC(C)C)c12	-9.26%
O=C(CCS(=O)(=O)c1ccccc1)N(Cc1cccnc1)c1nc2c(Cl)cccc2s1	-17.6%
O=C(Nc1ccccc1C(=O)OCc1cc(=O)n2c3c(sc2n1)CCCC3)c1ccccc1	15.9%
CCc1ccc(NC(=O)c2ccc3c(=O)n4nc(Nc5ccccc5C)sc4nc3c2)cc1	4.89%
COc1ccc(Cl)cc1NC(=O)Cn1c(=O)n(Cc2nc(C)no2)c(=O)c2ccccc21	3.29%
C=CCc1c(C)nc2nc(SCC(=O)Nc3cccc(Cl)c3)nn2c1C	-10.6%
CC(C)CN(CC(C)C)c1nc(-c2ccc(Cl)cc2)nc2ccccc12	-2.99%
CCc1cccc(NC(=O)c2cc3c(=O)[nH]c4ccccc4c3n2C)c1	0.929%
COc1ccc(CN(C)S(=O)(=O)c2nnc(NC(=O)C(C)C)s2)cc1OC	12.3%
COc1ccc(NC(=O)CSc2nnc3ccc(-c4ccccn4)nn23)cc1OC	active: 30.3%
Cc1ccc(C)c(CSC2=NC(C)(C)Nc3ccccc32)c1	-22.2%
COc1ccccc1NC(=O)C1=C(C)Nc2nc(SCc3ccccc3F)nn2C1c1cccnc1 (configuration not stated)	0.854%
Cc1ccc(Cl)cc1NC(=O)c1sc2nc(-c3ccccc3)cn2c1C	-17.1%
Clc1ccc(Nc2c(-c3cccs3)nc3ccc(Cl)cn23)cc1	-19%
COc1ccc(CCNC(=O)Cn2c(=O)cc(C(F)(F)F)c3c(C)nn(C)c32)cc1OC	9.77%
COc1ccc(-c2nc3scc(CCNS(=O)(=O)c4cc(F)ccc4OC)n3n2)cc1OC	19.2%
Cc1ccc(CCNC(=O)CCCn2c(=O)c3ccccc3n(CC(=O)Nc3cc(Cl)ccc3C)c2=O)cc1	4.04%
CC(=O)N1CCc2c(sc3nc(SCC(N)=O)n(-c4ccc(F)c(Cl)c4)c(=O)c23)C1	14.5%
Cc1ccc(CN2CCSc3ccc(C(=O)Nc4cc(C)cc(C)c4)cc32)cc1	2.53%
CN(C(=O)CSc1nnc(-c2ccc([N+](=O)[O-])cc2)o1)C1CCCCC1	-9.94%
COc1ccc2c(c1)c1c(c(=O)n(Cc3ccccc3)c(=O)n1CC(=O)Nc1cc(C)cc(C)c1)n2C	-7.33%
CC1CCN(CCn2c(=S)[nH]c3ccccc3c2=O)CC1	active: 30.6%
O=C(Nc1ccccc1OCc1cc(=O)n2ccccc2n1)c1cccc(Br)c1	-20.4%
Cc1cccc(N2CCN(C(=O)c3ccc4c(c3)c(C)c(C)n4C)CC2)c1C	7.93%

Structure (SMILES)	inhibition
CCOc1ccc(NC(=O)N2CCC(CN3CCCCCC3)CC2)cc1	15.4%
COc1ccc(CCN(C)C/C=C/c2ccccc2[N+](=O)[O-])cc1OC	active: 57.3%
Cc1ccc(Cl)cc1NC(=O)CCCn1c(=O)c2cccn2c2ccccc21	1.57%
Clc1ccc(OCc2nc(-c3ccc(-n4cccc4)cc3)no2)cc1	0.9%
O=C(CS(=O)(=O)Cc1ccccc1)Nc1ccc(Cl)cn1	active: 51.9%
COCCn1c(C)cc(O)c(C(c2ccccc2)N2CCN(CCO)CC2)c1=O (configuration not stated)	16%
COc1cc2c(cc1OC)C(COc1ccc3c(C)cc(=O)oc3c1)N(C(=O)c1cccc(OC)c1OC)CC2 (configuration not stated)	-1.7%
CC(=O)N1c2ccc(S(=O)(=O)N3CCCCCC3)cc2CC1C(=O)NCc1ccccc1 (configuration not stated)	-2.76%
Cc1ccc(-c2nc(CSCC(=O)NC3CCN(Cc4ccccc4)CC3)c(C)o2)cc1	active: 47.3%
O=C(Nc1ccc2oc(-c3ccccc3)nc2c1)c1ccc2ccccc2c1	25.1%
COCCCNC(=O)CSc1nc(-c2ccccc2)[nH]c1-c1ccc(C)cc1	19.8%
CCn1c(=O)cc(SCC(=O)NCCc2ccc(OC)cc2OC)c2ccccc21	4.1%
Cn1c(=O)[nH]c2cc(-c3noc(-c4ccc(F)cc4)n3)ccc21	17.3%
CCc1ccc(-n2c(=O)c3c4c(sc3n(CC(=O)NC(C)CC)c2=O)CCCC4)cc1 (configuration not stated)	3.05%
CCc1cnc2c(c1SCC(=O)Nc1ccc(C)cc1C)c(=O)n(C)c(=O)n2C	-25.7%
CCCn1c(=O)c2sccc2n2c(CCCC(=O)Nc3cccc(CC)c3)nnc12	4.01%
COc1ccc(NC(=O)Cn2c(SCc3ccc(C)cc3)nc3cccnc32)c(OC)c1	-16.8%
Cc1ccc(NC(=O)CCC(=O)N2Cc3ccccc3Oc3ncccc32)cc1	2.72%
O=C(CCc1ccccc1)NC1CC(=O)N(c2ccccc2)C1 (configuration not stated)	-18.3%
COc1cccc(OC)c1C(=O)Nc1ccc2c(c1)N(C(C)=O)CCC2	9.98%
CCOc1ccc(CNS(=O)(=O)c2cc(-c3cc(C)no3)ccc2C)cc1OC	-4.23%
O=C1CC(c2ccc(Cl)cc2)Sc2nc(-c3ccc(F)cc3)nn21 (configuration not stated)	-3.1%
